# Data published in paper PMC12040169 (PLOS Biology, 2025).
# The other results are listed elsewhere or left out.
# Test system: T1, C. trachomatis L2/434/Bu expressing GFP (CTL2-GFP)
# T1 construct: L2/434/Bu GFP intracellular growth in HeLa cells
# Parameters: species or system HeLa; C. trachomatis total inclusion area by high-content imaging, normalised to DMSO
# Settings: total inclusion area; 28.5 h, 10 µM; inhibitor
# Summary of the method: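 Imaging read-out: GFP inclusions and Hoechst nuclei captured by high-content imaging after fixation. Inclusion area/number = chlamydial growth; nuclei count = host cell viability. MIC calculated per earlier method.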
row,SMILES,% of control remaining
1,CCCCN1CCC(C(=O)Oc2ccc(OC)c3ccccc23)CC1 [CBK122682],86.9759
2,O=C(NC(Cc1cccs1)c1nccs1)c1cc[nH]n1 (stereo not drawn) [CBK285052],83.2568
3,Cc1ccc(-c2noc(CN(C(=O)CCc3ccccc3)C(C)C)n2)cc1 [CBK269313],88.7725
4,CCN(CC)CCNC(=O)c1ccc(NS(=O)(=O)c2cc(C(=O)O)ccc2OC)cc1 [CBK296962],110.23
5,CN(C)CCN(C)C(=O)c1ccc(-c2ccc3c(c2)OCO3)nc1N(C)C [CBK106072],91.7795
6,O=C1C2C(c3ccccc3Cl)OC3(C(=O)c4ccccc4C3=O)C2C(=O)N1c1ccc([N+](=O)[O-])cc1 (stereo not drawn) [CBK262425],104.116
7,COc1cc(/C=C2\C=C(c3ccc(-c4ccccc4)cc3)OC2=O)ccc1O [CBK265594],110.483
8,COc1ccc(NC(=O)/C(=C\c2ccc3c(c2)OCO3)NC(=O)c2ccco2)cc1 [CBK263607],116.728
9,Cc1cc(S(=O)(=O)NC2CCCCC2)ccc1OCC(=O)O [CBK267832],93.0475
10,Cc1nn(CC(=O)NC2CC2)c(=O)c2cc3ccsc3n12 [CBK284026],80.1682
11,O=C1NC2(CCN(C(=O)Cc3ccc(-c4ccccc4)cc3)CC2)Nc2ccccc21 [CBK286309],96.1536
12,Cc1ccc(N2CC(c3nc(-c4ccncc4)no3)CC2=O)cc1Cl (stereo not drawn) [CBK288582],108.793
13,CC(C)(C)NC(=O)COc1ccc(CNCc2ccc(C(=O)O)cc2)cc1 [CBK287204],103.373
14,O=C(O)c1ccc(N(Cc2ccccc2)S(=O)(=O)c2ccccc2)cc1 [CBK265375N],91.949
15,N#Cc1cccc(NC(=O)NC[C@H]2C[C@@H]3CC[N@]2C[C@@H]3CN2CCOCC2)c1 [CBK288763],95.1961
16,O=C(CSc1nnc(-c2cccnc2)n1-c1ccccc1)Nc1cc(C(F)(F)F)ccc1Cl [CBK267540],73.9237
17,Cc1n[nH]c(C)c1CCC(=O)N/N=C/c1ccccn1 [CBK262887],96.9109
18,Cc1noc(C)c1CN1CCC(C(O)c2ccccc2)CC1 (stereo not drawn) [CBK305783],102.976
19,COC(=O)c1c(NC(=O)C(Cc2ccccc2)N2C(=O)c3ccccc3C2=O)sc2c1CCC2 (stereo not drawn) [CBK265744],93.0591
20,Cc1ccc(-c2csc(=Nc3ccc(C(=O)O)cc3)n2Cc2ccccc2)cc1 [CBK296062],113.125
21,O=C(NCCc1ccccc1)C1CCN(C(=O)c2cccc(F)c2)CC1 [CBK307583],95.361
22,Brc1ccc(-c2ccnc3nc(-c4ccncc4)nn23)cc1 [CBK288623],99.0837
23,CCn1c(CN2CCOCC2)nnc1SCC(=O)Nc1cccc(Br)c1 [CBK269740],80.6146
24,Cc1cccc(N2CCN(C(=O)CCc3ccsc3)C(C)C2)n1 (stereo not drawn) [CBK304069],48.5308
25,O=C(NCC1COc2ccccc2O1)N1CCN(c2cc(C(F)(F)F)ccn2)CC1 (stereo not drawn) [CBK156432],104.941
26,COc1cc2c3c([nH]c2cc1F)C1(CCN(CCOc2ccccc2)C1)NCC3 (stereo not drawn) [CBK115687T],64.5783

row,SMILES,% of control remaining
1,Cc1ccc(CN2CCC(CN(C)C(=O)c3cc4sccc4[nH]3)CC2)o1 [CBK307522],84.2347
2,Cc1nc(S(=O)(=O)CCn2cccn2)n(CC2CCCO2)c1C (stereo not drawn) [CBK305141],63.9996
3,CC(NC(=O)/C(=C\c1ccc(Cl)cc1)NC(=O)c1ccccc1Br)C(=O)O (stereo not drawn) [CBK264582],106.46
4,N#Cc1cccc(CN2CC[C@H](c3nnc(-c4ccco4)o3)C2)c1 [CBK289394],77.951
5,CS(=O)(=O)N1CC2CCCC(O)(c3cccc(F)c3)C2C1 (stereo not drawn) [CBK283107],107.967
6,CCNc1nc(-c2cc(Cl)cc(Cl)c2)cn2ccnc12 [CBK066483],74.2284
7,Cc1nc2c(c(=O)[nH]1)CN(Cc1sccc1C)CC2 [CBK283950],102.21
8,CC(C)[C@H](CO)Nc1nc(-c2ccc(S(C)(=O)=O)cc2)cnc1N [CBK063718],116.026
9,COc1ccc(C(=O)[C@H]2CCCN(C(=O)C3CC3)C2)cc1 [CBK284329],90.1099
10,COc1ccc(Oc2nccc(-c3ccccc3)c2C#N)cc1 [CBK291158],107.573
11,S=C1NCC(COc2ccc(Cl)cc2)O1 (stereo not drawn) [CBK015647],89.2249
12,O=C(CN1CCCCCC1)N/N=C/c1ccc(F)c(Br)c1 [CBK261596],93.3397
13,CCN1CCN(Cc2ccc(OC)c(OCc3ccccc3)c2)CC1 [CBK261910],98.8996
14,COc1cccc(-c2cnc(N(C)C)nc2C2CCCN2Cc2ccc3ncccc3c2)c1 (stereo not drawn) [CBK286251],100.406
15,Cc1cc(NC(=O)CCn2c(C(F)F)cc3cccnc32)nn1C [CBK285071],102.204
16,Cc1cc(Br)ccc1NC(=O)CSc1nnc(-c2ccccc2O)n1-c1ccccc1 [CBK268086],100.78
17,O=C([C@H]1CN2CCC1C[C@@H]2Cn1cc(COc2ccccc2)nn1)N1CCOCC1 (stereo partly drawn) [CBK288734],95.5054
18,COc1cccc(CN2CCN(Cc3cc(OC)cc(OC)c3)CC2)c1 [CBK033622],99.1164
19,Cc1cc(COc2ccnc(N3CCCN(CCCO)CC3)n2)no1 [CBK083917],93.2482
20,O=C(O)/C=C\C(=O)Nc1ccc(Oc2ccccc2)cc1 [CBK261216],79.7366
21,Cc1cccc(C(=O)Nc2ccc3oc(-c4cccnc4)nc3c2)c1 [CBK073161],91.4884
22,FC(F)(F)c1ccnc(SCCc2cnccn2)n1 [CBK105300],93.7149
23,CCn1nc(C)c(C(C)NC(=O)CC(C)n2nc(C)cc2C)c1C (stereo not drawn) [CBK281533],114.418
24,O=C(c1ccc(COc2ccc(I)cc2)cc1)N1CCCCCC1 [CBK058852],94.3822
25,CCOC(=O)Cn1[nH]c(COC(C)(C)C)c(Cc2c(Cl)cccc2Cl)c1=O [CBK103551],92.0409
